# Several values for one entry are separate records, joined by “and”; a condition that tells them apart may be missing. Equal values may be shown once. Out of some 420,000 compounds screened, about 64,000 (15%) were called active. The shares of active, inactive and inconclusive entries below differ from those in the screen. Calls follow the shape of the dose curve; as a rule, active = well fitted inhibition curve with a large enough effect; inconclusive = small, poorly fitted or top-dose-only effect; inactive = flat fitted curve, though single readings scatter. Where the call is inconclusive, the potency comes from a doubtful curve fit.
# Test: qHTS for Inhibitors of human tyrosyl-DNA phosphodiesterase 1 (TDP1): qHTS in cells in absence of CPT; also: nearly all actives have a fitted effect of over 55% in size
# Conditions: DT40 Tdp1-/- hTDP1 cells, no CPT, ATP luminescence, 48 h; activity change, negative = growth inhibition: at 46.2 µM (top of the series) unless noted
# Summary of the method: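 A cellular qHTS used chicken DT40 cells lacking endogenous Tdp1 but carrying stably transfected human TDP1. Compounds were applied without camptothecin, and cell growth kinetics were judged by ATP-dependent luminescence after ≥48 hr.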
# % is scaled to controls: 0 for no effect and ±100 for the full control effect; potency is read from the fitted curve at half-maximal effect; tags tell the direction and shape of the fitted curve.
SMILES,Potency,"activity change, negative = growth inhibition"
CC(=O)c1c(C)nc2ccccc2c1N,"inconclusive: 23.1 µM [inhibitor, single point]",
O=C(Nc1ccc(F)c(Cl)c1)N(Cc1ccc2c(c1)OCO2)C1CCN(Cc2ccccc2)CC1,"inconclusive: 18.4 µM [inhibitor, single point]",
N#CCCn1cc(C(=O)Nc2ccccc2Cl)c(-c2ccc([N+](=O)[O-])cc2)n1,"inconclusive: 25.9 µM [inhibitor, single point]",
CN(C[C@H](Cc1ccccc1)N(C[C@H](Cc1ccccc1)N(CCC(C)(C)C)N=O)N=O)N=O,"inconclusive: 29.1 µM [inhibitor, single point]",
CCN(CC)CCO[C@H]1CC[C@@]2(C)C(=CC[C@@H]3[C@@H]2CC[C@]2(C)C(=O)CC[C@@H]32)C1,active: 2.66 µM,
O=C(CN1C(=O)CN=C(c2ccccc2)c2ccccc21)NCc1ccco1,,inactive: -7.93%
O=c1[nH]c(=S)n(-c2ccccc2)c(O)c1/C=N/N1CCOCC1,,inactive: 20.3%
CC1/C=C/C=C/CC/C=C/C=C/C=C/C=C/C(OC2OC(C)C(O)C(N)C2O)CC2O[C@](O)(CC(O)C(O)CCC(O)CC(O)CC(O)CC(=O)OC(C)C(C)C1O)CC(O)C2C(=O)O (stereo not given in full),,inactive: -9%
COC(=O)C1=C(c2ccc(Cl)c(C(F)(F)F)c2)C[C@@H]2CC[C@H]1N2C(=O)NCCCOC(C)C,active: 13 µM,
Cc1cc(C)cc(NC(=S)NC2CC3CCCC(C2)N3Cc2cccs2)c1 (stereo not given),"inconclusive: 20.6 µM [inhibitor, single point]",
CC[C@]12CCCN3CCC4(c5ccccc5NC4C(C(=O)O)C1)C32 (stereo not given in full),,inconclusive: -30.1% [inhibitor] [at 9.04 µM]
CCOc1ccc2nc(NC(=O)c3cccn(Cc4ccc(C)cc4)c3=O)sc2c1,,inactive: -11.3%
CC1=C(C/C(C)=C/c2ccccc2)/C(=C/CO)[C@H](O)[C@](C)(O)C12CC2,"inconclusive: 25.9 µM [inhibitor, single point]",
CC[N+](CC)(CC)CCCOC(=O)C(O)(c1ccccc1)C1CCCCC1 (stereo not given),"inconclusive: 0.259 µM [inhibitor, partial curve, poor fit]",
CCCNS(=O)(=O)c1ccc(OCC(=O)N2CCN(Cc3ccc4c(c3)OCO4)CC2)cc1,active: 11.6 µM,
CCOC(=O)[C@]12Cc3cc(OC)ccc3[C@H]1N(Cc1ccccc1)C(=O)c1ccccc12,active: 11.2 µM,
Cc1cccc(NC(=O)Oc2ccc(Cl)c3cccnc23)c1,active: 5.17 µM,
O=C(NCC1=C(c2cccc3ccccc23)C[C@@H]2CC[C@H]1N2Cc1ccco1)c1cccs1,active: 14.6 µM,
Nc1ccccc1,,inactive: -19.3%
Cc1cc(OCC(=O)N[C@H](C(=O)O)c2ccccc2)c2c3c(c(=O)oc2c1)CCC3,,inactive: -5.94%
O=C1CC(c2ccc(C(F)(F)F)cc2)c2c(c3ccccc3oc2=O)O1 (stereo not given),,inactive: -1.64%
Cc1ccc2c(c1)c(=O)c1c3n2CCN(CC2CO2)C3CC1 (stereo not given),"inconclusive: 16.4 µM [inhibitor, partial curve]",
Cc1ccc(Sc2ccc(C=C3C(=O)N(C)C(=O)N(C)C3=O)o2)cc1,active: 18.4 µM,
O=C(N/N=C/c1c(O)n(C2CCCCC2)c(=S)[nH]c1=O)c1ccccc1,"inconclusive: 29.1 µM [inhibitor, single point]",
CCOP(=O)(OCC)C(O)c1ccc(OC)c(OC)c1 (stereo not given),,inactive: -2.71%

SMILES,Potency,"activity change, negative = growth inhibition"
O=C(NCc1ccccc1)C(=O)NCC1OCCN1S(=O)(=O)c1ccc([N+](=O)[O-])cc1 (stereo not given),"inconclusive: 29.1 µM [inhibitor, single point]",
CC(C)CCn1c(=O)c(C(=O)NCc2ccc3c(c2)OCO3)c(O)c2ccccc21,"inconclusive: 20.6 µM [inhibitor, single point]",
N=c1n(CCO)c2ccccc2n1Cc1ccccc1,"inconclusive: 11.6 µM [inhibitor, single point]",
CN=C1CN(O)C(c2ccccc2)c2cc(Cl)ccc2N1 (stereo not given),"inconclusive: 23.1 µM [inhibitor, single point]",
Cc1cccc(Cn2cccc(C(=O)Nc3nnc(C)s3)c2=O)c1,,inactive: -21.9%
CCOc1ccc(C(C)=O)cc1Cc1c(O)[nH]c(=S)[nH]c1=O,,inactive: 1.73%
Cc1cccc(N=Cc2c(O)n(C)c(=O)n(C)c2=O)c1,,inactive: 3.6%
CC(=O)CC(C)(C)n1c[n+](C)nn1,,inactive: -10.6%
CCC(C)(C)n1nnnc1C(c1cccs1)N1CC=C(c2ccc(F)cc2)CC1 (stereo not given),"inconclusive: 20.6 µM [inhibitor, single point]",
Clc1ccc2c(c1)C(c1ccccc1Cl)=NCc1nnc(N3CCN(CCSc4ccccc4)CC3)n1-2,"inconclusive: 29.1 µM [inhibitor, partial curve, poor fit]",
O=c1c2ccccc2nc(/C=C\c2ccccc2[N+](=O)[O-])n1-c1ccccc1O,active: 23.1 µM,
COc1ccc(C(=O)CC(c2ccc3c(c2)OCO3)c2c(O)c3ccccc3oc2=O)cc1OC (stereo not given),"inconclusive: 16.4 µM [inhibitor, partial curve, poor fit]",
Cc1ccccc1-n1c(O)c(/C=C2/C(c3ccccc3)=Nc3ccccc32)c(=O)[nH]c1=O,active: 4.61 µM,
CCCCCN1C(=O)c2cc(OC)ccc2[C@@]2(C(=O)OCC)Cc3cc(Cl)ccc3[C@@H]12,active: 2.91 µM,
CC1=C2C(=O)C3C(CC=C4CC(O)CCC43C)C2CCC12OC1CC(C)CNC1C2C (stereo not given),,inactive: -15.4%
CC(C)CCNC(=O)c1cc(C(=O)c2cc(F)ccc2O)cn(CCC(C)C)c1=O,,inactive: -2.95%
COc1cc2c(c(OC)c1OC)-c1ccc(O)c(=O)cc1[C@@H](N)CC2,,inactive: -14.6%
Cn1cnc([N+](=O)[O-])c1Sc1ccc([N+](=O)[O-])cc1,active: 5.17 µM,
CCN(CC)c1ccc(N=Cc2c(O)n(-c3ccc(Cl)cc3)c(=O)[nH]c2=O)cc1,"inconclusive: 18.4 µM [inhibitor, single point]",
c1cc2c(cc1CCNC1CCCCCC1)OCO2,"inconclusive: 32.6 µM [inhibitor, single point]",
COc1ccc(CC(=O)C2C(=O)N(C)c3ccccc32)cc1OC (stereo not given),"inconclusive: 29.1 µM [inhibitor, single point]",
FC(F)(F)c1ccc(CNCCc2ccc3c(c2)OCO3)cc1,,inactive: -9.67%
OCCN1CCN(CCCN2c3ccccc3Sc3ccc(C(F)(F)F)cc32)CC1,active: 5.31 µM and active: 8.2 µM and active: 18.4 µM,
COc1ccc(OCC(=O)N2CCN(CC3CC4C=CC3C4)CC2)cc1 (stereo not given),,inactive: -24.2%
CCOC(=O)C1=C(CN2CCN(c3ccc(C)cc3C)CC2)NC(=O)NC1c1ccc(OC)cc1 (stereo not given),"inconclusive: 23.1 µM [inhibitor, single point]",

SMILES,Potency,"activity change, negative = growth inhibition"
NC(Cc1ccccc1)c1nc2ccccc2[nH]1 (stereo not given),,inactive: -18.2%
Cc1ccc(C(=O)Nc2nc3ccccc3n2CCN2CCCC2)cc1,active: 13 µM,
CCCCn1c(O)c(C(C)=NCCc2c[nH]c3ccccc23)c(=O)[nH]c1=O,active: 16.4 µM,
C=CCn1c(O)c(/C=C2/C=CC=N2)c(=O)[nH]c1=O,"inconclusive: 20.6 µM [inhibitor, partial curve, poor fit]",
c1cncc([C@H]2CCCCN2)c1,,inactive: -14%
COc1cc2c3c(c1OC)-c1cc(O)ccc1CC3NCC2 (stereo not given),"inconclusive: 14.6 µM [inhibitor, single point]",
CCc1ccc(CN2CCN(Cc3ccc(SC)cc3)CC2)cc1,active: 20.6 µM,
O=C(Nc1ccc2c(c1)OCCO2)c1cccn(Cc2ccccc2)c1=O,"inconclusive: 23.1 µM [inhibitor, partial curve]",
Cc1cc(N2CCOCC2)ccc1/C=C1\C(=O)NC(=O)N(c2ccccc2)C1=O,"inconclusive: 29.1 µM [inhibitor, single point]",
CC[N+]1(CCOC(=O)C(O)(c2ccccc2)c2ccccc2)CCCCC1,,inactive: -6.5%
COc1ccc(C(=O)C2CCCN(C3CSCCSC3)C2)c(OC)c1 (stereo not given),active: 23.1 µM,
COc1ccc(C=C2C(=O)NC(=S)NC2=O)cc1,"inconclusive: 29.1 µM [inhibitor, single point]",
Cc1ccc2cc(CNCCc3ccccc3C)c(=O)[nH]c2c1,active: 18.4 µM,
CCOC(=O)c1c(NC(NC(=O)CF)C(Cl)(Cl)Cl)sc2c1CCCC2 (stereo not given),"inconclusive: 16.4 µM [inhibitor, single point]",
Cc1ccc(C)c(NC(=O)CSc2nnc([C@@H](N)Cc3c[nH]c4ccccc34)o2)c1,,inactive: 0.13%
O=C(c1ccc(Cl)cc1)C1CCCN(Cc2cccn2-c2cccnc2)C1 (stereo not given),active: 13 µM,
COc1ccc(CCNC(=O)c2ccc3c(c2)CCN3S(=O)(=O)c2ccc(C)cc2)cc1OC,active: 13 µM,
Cc1nn(CC(C)C)c(Cl)c1C(=O)NC1CCCCC1,,inactive: -12.2%
ClCCN(CCCl)c1ccc(/C=C/c2ccnc3ccccc23)cc1,active: 3.55 µM,
O=C(CCCc1ccc(N(CCCl)CCCl)cc1)NCc1ccccc1,active: 0.731 µM,
OC(Cc1ccccc1)(c1ccccc1)C1CN2CCC1CC2 (stereo not given),active: 16.4 µM,
CC(CN1CCOCC1)C(C#N)(c1ccccc1)c1ccccc1 (stereo not given),"inconclusive: 20.6 µM [inhibitor, single point]",
CC(C)c1ccc(C(=O)N2CCCC(c3cc(C(=O)Nc4ccccc4Cl)no3)C2)cc1 (stereo not given),active: 5.8 µM,
Cc1ccc(-c2nc(CN3C(=O)CN=C(c4ccccc4Cl)c4cc(Cl)ccc43)c(C)o2)cc1,active: 14.6 µM,
Cc1ccc(Cl)cc1N1CCN(C(=O)c2cn(C)c(=O)c3c2c2ccccc2n3C)CC1,active: 18.4 µM,
